Results published in the supplement of paper PMC12217912.
The other results are listed elsewhere or left out. Sequences were assembled here from the parent chain. Values near 0.05 are background.

B1: TEV protease; numbered along this chain (parent)
chain: MGESLFKGPRDYNPISSSICHLTNESDGHTTSLYGIGFGPFIITNKHLFRRNNGTLVVQSLHGVFKVKDTTTLQQHLVDGRDMIIIRMPKDFPPFPQKLKFREPQREERICLVTTNFQTKSMSSMVSDTSCTFPSGDGIFWKHWIQTKDGQCGSPLVSTRDGFIVGIHSASNFTNTNNYFTSVPKNFMELLTNQEAQQWVSGWRLNADSVLWGGHKVFMVKPEEPFQPVKEATQL

Variants of: B1
Experiment: raw area under fraction-flipped curve 0-4 h after induction (AUC4h, not background-subtracted), DNA-recorder readout of cleavage of the substrate (dimensionless); higher = more cleavage of the substrate by the protease variant
Conditions: temperature: 34 °C; time window: 0-4 h after rhamnose induction
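Also: Bxb1 expression induced with 0.2% (w/v) L-rhamnose at OD600 near 0.5, cultures sampled hourly, flipped fraction per protease–substrate barcode pair counted by paired-end Illumina sequencing.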

| Variant | area with substrate ENLYFQC | area with substrate ENLYFQD | area with substrate ENLYFQF | area with substrate ENLYFQG | area with substrate ENLYFQH | area with substrate ENLYFQK | area with substrate ENLYFQN | area with substrate ENLYFQR | area with substrate ENLYFQS | area with substrate ENLYFQT | area with substrate ENLYFQW | area with substrate ENLYFQY | area with substrate ENLYFQI | area with substrate ENLYFQL | area with substrate ENLYFQP | area with substrate ENLYFQQ | area with substrate ENLYFQV | area with substrate ENLYFQM |
| --- | --- | --- | --- | --- | --- | --- | --- | --- | --- | --- | --- | --- | --- | --- | --- | --- | --- | --- |
| MGESLFKGPRDYNPISSSICHLTNESDGHTTSLYGIGFGPFIITNKHLFRRNNGTLVVQSLHGVFKVKDTTTLQQHLVDGRDMIIIRMPKDFPPFPQKLKFREPQREERICLVTTNFQTKSMSSMVSDTSCTFPSGDKIFWKHWIQTKDGQCGSPLVSTRDGFIVGIHSASNFTNTNNYFTSVPKNFMELLTNQEAQQWVSGWRLNADSVLWGGHKVFMVKPEEPFQPVKEATQL [G138K] | 0.0812 | 0.0526 | 0.0078 | 0.0689 | 0.0811 | 0.0611 | 0.0536 | 0.0433 | 0.0883 | 0.0626 | 0.0686 | 0.0624 | – | – | – | – | – | – |
| MGESLFKGPRDYNPISSSICHLTNESDGHTTSLYGIGFGPFIITNKHLFRRNNGTLVVQSLHGVFKVKDTTTLQQHLVDGRDMIIIRMPKDFPPFPQKLKFREPQREERICLVTTNFQTKSMSSMVSDTSCTFPSGDGIFWKHWIQTKDGQCGSPTVSTRDGFIVGIHSASNFTNTNNYFTSVPKNFMELLTNQEAQQWVSGWRLNADSVLWGGHKVFMVKPEEPFQPVKEATQL [L156T] | 0.107 | 0.0598 | – | 0.0594 | 0.0639 | 0.0551 | 0.0775 | 0.0582 | 0.0936 | 0.0687 | – | – | 0.0525 | 0.0544 | 0.0581 | – | – | – |
| MGESLFKGPRDYNPISSSICHLTNESDGHTTSLYGIGFGPFIITNKHLFRRNNGTLVVQSLHGVFKVKDTTTLQQHLVDGRDMIIIRMPKDFPPFPQKLKFREPQREERICLVTTNFQTKSMSSMVCDTSCTFPSGDGIFWKHWIQTKDGQCGSPLVSTRDGFIVGIHSASNFTNTNNYFTSVPKNFMELLTNQEAQQWVSGWRLNADSVLWGGHKVFMVKPEEPFQPVKEATQL [S127C] | 0.0953 | – | 0.0797 | 0.118 | 0.0768 | 0.0661 | 0.0905 | 0.0687 | 0.106 | 0.0704 | 0.096 | 0.103 | 0.0574 | – | 0.0643 | 0.0969 | 0.0733 | – |
| MGESLFKGPRDYNPISSSICHLTNESDGHTTSLYGIGFGPFIITNKHLFRRNNGTLVVQSLHGVFKVKDTTTLQQHLVDGRDMIIIRMPKDFPPFPQKLKFREPQREERICLVTTNFQTKSMSSMVSDTSCTFPSGDGIFWKHWIQTKDGQCGSPLVSTRDGFIVGIHSASNFTNTNNYFTSVPKNFMELLTNQEAQQWVSGWRLNADSVLCGGHKVFMVKPEEPFQPVKEATQL [W212C] | 0.127 | – | – | 0.096 | 0.082 | 0.0462 | 0.0667 | – | 0.111 | 0.0571 | 0.0081 | – | 0.0554 | 0.0603 | 0.0658 | – | – | – |
| MGESAFKGPRDYNPISSSICHLTNESDGHTTSLYGIGFGPFIITNKHLFRRNNGTLVVQSLHGVFKVKDTTTLQQHLVDGRDMIIIRMPKDFPPFPQKLKFREPQREERICLVTTNFQTKSMSSMVSDTSCTFPSGDGIFWKHWIQTKDGQCGSPLVSTRDGFIVGIHSASNFTNTNNYFTSVPKNFMELLTNQEAQQWVSGWRLNADSVLWGGHKVFMVKPEEPFQPVKEATQL [L5A] | 0.131 | – | – | 0.1 | 0.0772 | 0.0697 | 0.0766 | 0.0602 | 0.114 | 0.0577 | – | – | 0.0626 | 0.0632 | – | – | 0.0666 | 0.0767 |
| MGESLFKGPRDYNPISSSICHLTNESDGHTTSLYGIGFGPFIITNKHLFRRNNGTLVVQSLHGVFKVKDTTTLQQHLVDGRDMIIIRMQKDFPPFPQKLKFREPQREERICLVTTNFQTKSMSSMVSDTSCTFPSGDGIFWKHWIQTKDGQCGSPLVSTRDGFIVGIHSASNFTNTNNYFTSVPKNFMELLTNQEAQQWVSGWRLNADSVLWGGHKVFMVKPEEPFQPVKEATQL [P89Q] | 0.0868 | 0.0672 | – | 0.081 | – | – | 0.0747 | 0.0545 | 0.0818 | 0.0442 | 0.0498 | 0.0715 | – | – | 0.0441 | 0.0642 | – | 0.097 |
| MGESLFKGPRDYNPISSSICHLTNESDGHTTSLYGIGFGPFIITNKHLFRRNNGTLVVQSLHGVFKVKDTTTLQQHLVDGRDMIIIRMPKDFPPFPQKLKFREPQREERICLVTTNFQTKSMSSMVSDTSCTFPSGDGIFWKHWIQTKDGQCGSPLVSTRDGFIVGIHSASNFTNTNNYFTSVPKNFMELLTNQEAQQWVSGWRLNADSVLWGGHKVFMVKPSEPFQPVKEATQL [E223S] | 0.112 | – | 0.0465 | 0.077 | 0.0891 | 0.0556 | 0.0832 | 0.0714 | 0.0961 | 0.063 | 0.0615 | 0.0582 | 0.0649 | 0.0606 | 0.0911 | – | 0.0618 | 0.0931 |
| MGESLFKGPRDYNPISSSICHLTNESDGHTTSLYGIGFGPFIITNKHLFRRNNGTLVVQSLHGVFKVHDTTTLQQHLVDGRDMIIIRMPKDFPPFPQKLKFREPQREERICLVTTNFQTKSMSSMVSDTSCTFPSGDGIFWKHWIQTKDGQCGSPLVSTRDGFIVGIHSASNFTNTNNYFTSVPKNFMELLTNQEAQQWVSGWRLNADSVLWGGHKVFMVKPEEPFQPVKEATQL [K68H] | 0.119 | – | 0.0771 | – | 0.133 | 0.0715 | – | – | 0.103 | 0.0681 | 0.0639 | 0.0782 | 0.0394 | – | – | – | – | 0.109 |
